Results published in PubChem BioAssay AID624417 (National Center for Advancing Translational Sciences (NCATS), 2012).
“And” between values parts separate entries of the source, which are not always exact repeats. Equal values may be shown once. The campaign covered roughly 410,000 compounds. About 6,400 (1.6%) were called active. The shares of active, inactive and inconclusive entries below differ from those in the screen. Calls come from the whole dose curve; as a rule, active = well fitted inhibition curve with a large enough effect; inconclusive = small, poorly fitted or top-dose-only effect; inactive = no such curve, though single readings can be large or run the other way. Potencies of inconclusive entries are doubtful fits and often do not repeat.

Target: Glucagon-like peptide 1 receptor (Homo sapiens) (UniProt P43220)
UniProt P43220, sequence (P43220 whole entry, looked up): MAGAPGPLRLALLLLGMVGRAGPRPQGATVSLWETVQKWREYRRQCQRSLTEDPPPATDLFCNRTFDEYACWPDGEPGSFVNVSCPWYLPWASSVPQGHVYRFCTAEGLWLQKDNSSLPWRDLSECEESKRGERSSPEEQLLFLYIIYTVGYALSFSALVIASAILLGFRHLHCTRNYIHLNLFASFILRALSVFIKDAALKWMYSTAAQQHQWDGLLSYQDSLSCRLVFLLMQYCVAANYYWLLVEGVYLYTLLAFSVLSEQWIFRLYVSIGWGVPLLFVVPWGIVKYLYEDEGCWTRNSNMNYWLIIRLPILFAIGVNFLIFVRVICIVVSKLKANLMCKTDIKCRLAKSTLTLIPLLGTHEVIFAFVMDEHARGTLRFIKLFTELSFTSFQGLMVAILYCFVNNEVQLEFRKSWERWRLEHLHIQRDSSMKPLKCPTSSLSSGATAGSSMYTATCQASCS
Experiment: qHTS of GLP-1 Receptor Inverse Agonists (Inhibition Mode); note: nearly all actives have a fitted effect of over 55% in size
Conditions: HEK293 GLP-1R CRE-luciferase, luminescence, 24 h, GLP-1R form is constitutively active; activity change, negative = inhibition: at 38.3 µM (top of the series) unless noted
Procedure, shortened: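 qHTS in 1536-well format: reporter HEK293 cells expressing constitutive GLP-1R activity in DMEM + 10% Nu serum, 24 hr with compounds at 37 deg C, luminescence read after 12 min with detection reagent.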
% is set by controls: 0 for no effect and ±100 for the full control effect; potency is the fitted concentration of half-maximal effect; tags give direction and shape of the fitted curve.

Row | Compound | activity change, negative = inhibition | Potency
1 | COC(=O)[C@@]12C[C@@H](CC(=O)NCc3ccc(OC)c(OC)c3)C(=O)N(Cc3ccccc3)C1=CCC(C)(C)C2 | inactive: -12.4% | 
2 | c1ccc(-c2ncc(-c3ccn[nH]3)s2)cc1 |  | inconclusive: 12.6 µM [inhibitor, single point]
3 | COCOCCn1cc(CN2CCS(=O)(=O)N(Cc3ccc(-c4cccc(N(C)C)c4)cc3)C(C(C)C)C2=O)nn1 (centres undefined) |  | inconclusive: 11.2 µM [inhibitor, single point]
4 | Clc1ccccc1-c1cc2nc(NCCCn3ccnc3)ccn2n1 | inactive: 13% | 
5 | CCN1CCCc2cc(CN(CCN3CCOCC3)C(=S)Nc3cccc(C)c3)ccc21 |  | inconclusive: 22.4 µM [inhibitor, single point]
6 | CCCCN1CN(Cc2ccco2)CNC1=S | inactive: 10.9% | 
7 | Cc1cccc(/C=N/n2c(C3CCCCC3)n[nH]c2=S)c1 |  | inconclusive: 28.2 µM [inhibitor, single point]
8 | CC1=NN(C(=O)CSCc2ccccc2)C(O)(c2ccccc2)C1 (centres undefined) |  | inconclusive: 12.6 µM [inhibitor, single point]
9 | Cc1ccc(-n2c(-c3ccncc3)n[nH]c2=S)cc1 | inactive: 17.2% | 
10 | CC(C)(CNC(=O)CCC1CCCC1)CNC(=O)CCC1CCCC1 |  | inconclusive: 2 µM [inhibitor, partial curve, poor fit]
11 | Cc1ccsc1/C=C/C1=Cc2c(sc(NC(=O)CSc3n[nH]c(N)n3)c2C#N)C(C)(C)C1 | inactive: 0% | 
12 | Cc1ccc(-n2ncc(C(=O)NCCc3ccccc3)c2C2CCN(C(=O)OC(C)(C)C)CC2)c(C)c1 |  | inconclusive: 12.6 µM [inhibitor, single point]
13 | COc1ccccc1-c1nn(Cc2ccccc2)cc1C(=O)NCC(c1ccco1)N1CCCC1 (centres undefined) |  | inconclusive: 28.2 µM [inhibitor, single point]
14 | O=C(/C=C/c1ccc(F)cc1)NC(=S)N1CCN(Cc2ccccc2)CC1 |  | inconclusive: 7.08 µM [inhibitor, partial curve, poor fit]
15 | COc1ccccc1C(=O)N(CCN(C)C)c1nc2cc(C)cc(C)c2s1 |  | active: 11.2 µM
16 | COc1ccc(NC(=O)CCCCC#Cc2ccccc2)cc1 |  | inconclusive: 28.2 µM [inhibitor, single point]
17 | CCc1nc2ccc(C(=O)Nc3cccc(NS(C)(=O)=O)c3)cn2c1N(C)CCCc1ccccc1 |  | inconclusive: 20 µM [inhibitor, single point]
18 | N/C(=N\OC(=O)c1ccc(Cl)cc1)c1ccn[nH]1 |  | inconclusive: 12.6 µM [inhibitor, partial curve, poor fit]
19 | COc1ccc(CNC(=O)c2ccc(NC(=O)N3CC4CCCN4c4ccccc43)cc2)cc1 (centres undefined) |  | inconclusive: 22.4 µM [inhibitor, single point]
20 | Fc1ccccc1N1CCN(Cc2cc(-c3ccccc3)on2)CC1 |  | inconclusive: 31.6 µM [inhibitor, single point]
21 | OCCNCC(O)CN1c2ccccc2Sc2ccccc21 (centres undefined) |  | inconclusive: 11.2 µM [inhibitor, partial curve, poor fit]
22 | CC(C)n1cnc2c(N(C)c3ccccc3)nc(N(CCN(C)C)Cc3ccccc3)nc21 |  | inconclusive: 28.2 µM [inhibitor, single point]

Row | Compound | activity change, negative = inhibition | Potency
23 | O=C1c2ccccc2-c2nnc(-c3ccc(F)cc3)cc21 | inactive: -9.36% | 
24 | COc1cccc(OCc2cc(C(=O)N3CCN(c4ccccc4OC)CC3)no2)c1 |  | inconclusive: 28.2 µM [inhibitor, single point]
25 | N#Cc1c(N2CCCC(O)C2)nc(N)c2c(N)nc3c(c12)CC(=O)N3C12CC3CC(CC(C3)C1)C2 (centres undefined) | inactive: 172% | 
26 | Cn1c(SCC#N)nnc1-c1cnccn1 |  | inconclusive: 28.2 µM [inhibitor, single point]
27 | CCc1nc2c(OCc3ccc(C(F)(F)F)cc3)cccn2c1N(C)C(=O)CC(C)C |  | inconclusive: 17.8 µM [inhibitor, partial curve, poor fit]
28 | CCc1cccc(NC(=O)c2cn3c4c(ccc(Cl)c4c2=O)OC(C)C3)c1 (centres undefined) | inactive: 5.8% | 
29 | Cc1nn(-c2ccccc2)c(C)c1C(=O)NCCc1ccc(Cl)cc1 |  | inconclusive: 2.24 µM [inhibitor, full curve, poor fit]
30 | CCCCC[C@@H]1C=C(C(=O)O)[C@H](c2ccc(F)cc2)N1S(=O)(=O)c1ccc(C)cc1 |  | inconclusive: 11.2 µM [inhibitor, single point]
31 | O=C(NCCC1=CCCCC1)c1ccc2c(c1)N(Cc1ccccc1F)C(=O)c1ccccc1S2=O (centres undefined) |  | inconclusive: 28.2 µM [inhibitor, single point]
32 | CCc1cccc(-n2c(=O)c3cccnc3n2CC(=O)NCc2ccccc2)c1 |  | inconclusive: 28.2 µM [inhibitor, single point]
33 | O=C(c1ccc(Br)cc1)N(Cc1nc2ccccc2c(=O)[nH]1)C1CCCC1 |  | inconclusive: 31.6 µM [inhibitor, partial curve, poor fit]
34 | CCN(C1CCCCC1)S(=O)(=O)c1ccc(OC)c(C)c1 |  | inconclusive: 10 µM [inhibitor, partial curve, poor fit]
35 | CCCNS(=O)(=O)c1ccc2nc(NC(=O)c3ccc(F)cc3)sc2c1 | inactive: 21.6% | 
36 | Cc1cc(C(=O)CCC(=O)N2CCN(c3ccccc3F)CC2)c(C)s1 |  | inconclusive: 28.2 µM [inhibitor, single point]
37 | COc1ccc(-c2nn(-c3ccccc3)cc2CNC(=O)c2cccc([N+](=O)[O-])c2)cc1 |  | inconclusive: 31.6 µM [inhibitor, single point]
38 | CCOc1ccccc1Nc1cc(C)c2cccc(C)c2n1 |  | inconclusive: 31.6 µM [inhibitor, single point]
39 | COc1ccc(C(=O)CSc2nc3ccccc3n2CC(=O)c2ccccc2)cc1 |  | inconclusive: 14.1 µM [inhibitor, single point]
40 | CCn1c(SCC(=O)N2CCCC2=O)nc2ccccc21 | inactive: -4.71% | 
41 | Cn1c(NCCCN2CCOCC2)nc2c1c(=O)n(Cc1ccc(Cl)c(Cl)c1)c(=O)n2C |  | inconclusive: 12.6 µM [inhibitor, single point]
42 | Cc1nc(-c2ccc(S(=O)(=O)Nc3ccc(C#N)cc3)cc2)co1 | inactive: 1.02% | 
43 | CCS(=O)(=O)Nc1c(C(=O)OC)[nH]c2ccccc12 | inactive: 7.9% | 
44 | CCOc1ccc(C(=O)OCC(=O)NC2CCCCCCC2)cc1 |  | inconclusive: 28.2 µM [inhibitor, single point]

Row | Compound | activity change, negative = inhibition | Potency
45 | S=C(NCc1ccccc1Cl)Nc1ccccc1Cl |  | inconclusive: 28.2 µM [inhibitor, single point]
46 | Cc1nn(-c2ccc(Cl)cc2)c(=O)c2ccccc12 | inactive: -22.6% | 
47 | Cc1ccccc1Nc1sc(C(=O)c2ccccc2)c(N)c1C(=O)NCc1ccc(Cl)cc1 |  | inconclusive: 11.2 µM [inhibitor, single point]
48 | Cc1nn2c(N)c(-c3ccccc3)cnc2c1-c1ccc(Cl)cc1 |  | inconclusive: 0.501 µM [inhibitor, full curve, poor fit]
49 | Cc1ccc(S(=O)(=O)N2CCC(C(=O)NNC(=O)c3ccncc3)CC2)cc1 | inactive: 5.13% | 
50 | O=C(CSCC(=O)Nc1ccc2ccccc2c1)NCc1ccccc1 |  | inconclusive: 10 µM [inhibitor, single point]
51 | Nc1ccc(N2CCOCC2)c(S(=O)(=O)Nc2cc(Cl)ccc2Cl)c1 |  | inconclusive: 0.316 µM [inhibitor, full curve, poor fit]
52 | CCC(C(=O)Nc1cc(C)on1)c1ccccc1 (centres undefined) |  | inconclusive: 28.2 µM [inhibitor, single point]
53 | O=C(CN1CCCCC1)Nc1nc(-c2ccccc2)cs1 |  | inconclusive: 7.94 µM [inhibitor, partial curve, poor fit]
54 | O=C(Nc1nc(-c2ccccc2)cs1)c1cccc([N+](=O)[O-])c1 |  | inconclusive: 28.2 µM [inhibitor, single point]
55 | COc1cccc(OCc2cc(C(=O)NCc3ccc4c(c3)OCO4)no2)c1 |  | inconclusive: 28.2 µM [inhibitor, single point]
56 | O=C(C1CC(=O)N(C2CCCC2)C1)N1CCN(c2cccc(C(F)(F)F)c2)CC1 (centres undefined) |  | inconclusive: 28.2 µM [inhibitor, single point]
57 | CCCNC(=O)c1c(C)nn(-c2cccc(C)c2)c1-n1cccc1 |  | inconclusive: 10 µM [inhibitor, single point]
58 | Cc1ccccc1N1CCN(CCCOc2ccc3c(C)cc(=O)oc3c2)CC1 |  | inconclusive: 28.2 µM [inhibitor, single point]
59 | CCc1nn(C(C)C(=O)N2CCN(c3cccc(C(F)(F)F)c3)CC2)c(=O)c2cc3occc3n12 (centres undefined) | inactive: 16.3% | 
60 | CC(CN(C)C)CN1c2ccccc2Sc2ccccc21 (centres undefined) |  | inconclusive: 8.91 µM [inhibitor, partial curve, poor fit]
61 | COc1cccc(C(=O)N2c3nc(-c4ccco4)nn3C3(CCCCC3)[C@@H]3CCCC[C@@H]32)c1 |  | inconclusive: 10 µM [inhibitor, partial curve]
62 | CCc1ccc(C2c3[nH]c4ccccc4c3CCN2C(=O)CN2CCN(CC)CC2)cc1 (centres undefined) |  | inconclusive: 3.55 µM [inhibitor, partial curve, poor fit]
63 | O=C(Nc1ccc2c(c1)oc1ccccc12)N1CCOCC1 |  | inconclusive: 10 µM [inhibitor, single point]
64 | CN(C)S(=O)(=O)n1cc(/C=C(\NC(=O)c2ccccc2Cl)C(=O)NCCCn2ccnc2)c2ccccc21 |  | inconclusive: 28.2 µM [inhibitor, single point] and inconclusive: 11.2 µM [inhibitor, partial curve, poor fit]
